Measurements reported in ChEMBL document CHEMBL3091431, “Aminopyridyl/Pyrazinyl Spiro[indoline-3,4'-piperidine]-2-ones As Highly Selective and Efficacious c-Met/ALK Inhibitors” (ACS Med Chem Lett, 2013).

Key:
[1] = tested on: Nc1ncnc2c1ncn2[C@@H]1O[C@H](COP(=O)(O)OP(=O)(O)OP(=O)(O)O)[C@@H](O)[C@H]1O; experiment: Inhibition of human c-Met using KKKSPGEYVNIEFG peptide as substrate by nanoliter kinase assay
[2] = tested on: Nc1ncnc2c1ncn2[C@@H]1O[C@H](COP(=O)(O)OP(=O)(O)OP(=O)(O)O)[C@@H](O)[C@H]1O; experiment: Inhibition of human AXL (unknown origin) using EAIYAAPFAKKK peptide as substrate by nanoliter kinase assay

## Hepatocyte growth factor receptor (Homo sapiens) (sequence not shown)
[1]
  Km: 10 µM

## Tyrosine-protein kinase receptor UFO (Homo sapiens) (sequence not shown)
[2]
  Km: 100 µM
